Laboratory results taken from article PMC9911399, “Two distinct binding modes provide the RNA-binding protein RbFox with extraordinary sequence specificity”.
Numbering of substitutions follows the chain as printed; changes in the protein carry UniProt numbers. The list shows a part of the results.

T1: RBFOX1 RRM (Homo sapiens, UniProt Q9NWB1 109-208)
T1 sequence: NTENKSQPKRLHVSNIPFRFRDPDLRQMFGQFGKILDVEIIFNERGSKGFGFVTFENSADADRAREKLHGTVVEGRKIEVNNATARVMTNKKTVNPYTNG

B1: UGACCCC (DNA:RNA)
RNA: GGGAGACCGGAAUUCAGAUUGUCCUGACCCCUUAAAUCCCGUCGUAGCCACCA
DNA 1: CAATCTGAATTCCGGTCTCCC
DNA 2: TGGTGGCTACGACGGGATT
B2: UGGGUAA (DNA:RNA)
RNA: B1 RNA with A27G, C28G, C29U, C30A, C31A
DNA 1: CAATCTGAATTCCGGTCTCCC
DNA 2: TGGTGGCTACGACGGGATT
B3: CUAAGCC (DNA:RNA)
RNA: B1 RNA with U25C, G26U, C28A, C29G
DNA 1: CAATCTGAATTCCGGTCTCCC
DNA 2: TGGTGGCTACGACGGGATT
B4: CCAGAAG (DNA:RNA)
RNA: B1 RNA with U25C, G26C, C28G, C29A, C30A, C31G
DNA 1: CAATCTGAATTCCGGTCTCCC
DNA 2: TGGTGGCTACGACGGGATT
B5: CUCAAAA (DNA:RNA)
RNA: GGGAGACCGGAAUUCAGAUUGUCCCUCAAAAUUAAAUCCCGUCGUAGCCACCA
DNA 1: CAATCTGAATTCCGGTCTCCC
DNA 2: TGGTGGCTACGACGGGATT
B6: CGACCGA (DNA:RNA)
RNA: B1 RNA with U25C, C30G, C31A
DNA 1: CAATCTGAATTCCGGTCTCCC
DNA 2: TGGTGGCTACGACGGGATT
B7: UAGGGUG (DNA:RNA)
RNA: B1 RNA with G26A, A27G, C28G, C29G, C30U, C31G
DNA 1: CAATCTGAATTCCGGTCTCCC
DNA 2: TGGTGGCTACGACGGGATT
B8: UACCCAC (DNA:RNA)
RNA: B1 RNA with G26A, A27C, C30A
DNA 1: CAATCTGAATTCCGGTCTCCC
DNA 2: TGGTGGCTACGACGGGATT
B9: UGGUUCU (DNA:RNA)
RNA: B1 RNA with A27G, C28U, C29U, C31U
DNA 1: CAATCTGAATTCCGGTCTCCC
DNA 2: TGGTGGCTACGACGGGATT
B10: CAUAGAA (DNA:RNA)
RNA: B5 RNA with U26A, C27U, A29G
DNA 1: CAATCTGAATTCCGGTCTCCC
DNA 2: TGGTGGCTACGACGGGATT
B11: GAUAGCA (DNA:RNA)
RNA: B5 RNA with C25G, U26A, C27U, A29G, A30C
DNA 1: CAATCTGAATTCCGGTCTCCC
DNA 2: TGGTGGCTACGACGGGATT
B12: CUUAGAU (DNA:RNA)
RNA: B5 RNA with C27U, A29G, A31U
DNA 1: CAATCTGAATTCCGGTCTCCC
DNA 2: TGGTGGCTACGACGGGATT
B13: GGUGCCG (DNA:RNA)
RNA: B1 RNA with U25G, A27U, C28G, C31G
DNA 1: CAATCTGAATTCCGGTCTCCC
DNA 2: TGGTGGCTACGACGGGATT
B14: AAUCUGG (DNA:RNA)
RNA: B1 RNA with U25A, G26A, A27U, C29U, C30G, C31G
DNA 1: CAATCTGAATTCCGGTCTCCC
DNA 2: TGGTGGCTACGACGGGATT
B15: UACCAGA (DNA:RNA)
RNA: B5 RNA with C25U, U26A, A28C, A30G
DNA 1: CAATCTGAATTCCGGTCTCCC
DNA 2: TGGTGGCTACGACGGGATT
B16: CUGGUUA (DNA:RNA)
RNA: B5 RNA with C27G, A28G, A29U, A30U
DNA 1: CAATCTGAATTCCGGTCTCCC
DNA 2: TGGTGGCTACGACGGGATT
B17: CGAUGAC (DNA:RNA)
RNA: B1 RNA with U25C, C28U, C29G, C30A
DNA 1: CAATCTGAATTCCGGTCTCCC
DNA 2: TGGTGGCTACGACGGGATT
B18: CCGCUCG (DNA:RNA)
RNA: B1 RNA with U25C, G26C, A27G, C29U, C31G
DNA 1: CAATCTGAATTCCGGTCTCCC
DNA 2: TGGTGGCTACGACGGGATT
B19: UUCCGUU (DNA:RNA)
RNA: B5 RNA with C25U, A28C, A29G, A30U, A31U
DNA 1: CAATCTGAATTCCGGTCTCCC
DNA 2: TGGTGGCTACGACGGGATT
B20: GGUAAUG (DNA:RNA)
RNA: B5 RNA with C25G, U26G, C27U, A30U, A31G
DNA 1: CAATCTGAATTCCGGTCTCCC
DNA 2: TGGTGGCTACGACGGGATT

Each binder was assayed against T1, RBFOX1 RRM (assay: EMSA; HiTS-Eq, 1 nM pool, 10 min; buffer printed only for the single-RNA assays: 10 mM Tris pH 7.5, 150 mM NaCl, 3.4 mM EDTA, 0.001% NP-40, 30 C). Conditions: tags: His6 N-terminal (pET28a); label: 5' 32P.
In short: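 Purified RbFox RRM, wild type or mutant, was incubated for 10 min in 50 µL with 1 nM of a 5′-radiolabelled RNA pool carrying 7 randomized nucleotides, whose flanks were annealed to DNA oligonucleotides, over a series of increasing protein concentrations. Unbound RNA was resolved on 8% native PAGE, cut out, reverse-transcribed, barcoded by PCR and sequenced on an Illumina HiSeq 2500. Relative association constants were derived from changes in read counts for each RNA species versus the control reaction and normalised to the cognate motif.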
With B1 the binding signal was 0.00755 KA relative to UGCAUGU. For B2, the binding signal was 0.0233 KA relative to UGCAUGU. With B3 the binding signal was 0.00473 KA relative to UGCAUGU. With B4 the binding signal was 0.00547 KA relative to UGCAUGU. In the case of B5, the binding signal is reported as 0.00184 KA relative to UGCAUGU. B6 was tested, and the binding signal was 0.0125 KA relative to UGCAUGU. With B7 the binding signal was 0.0191 KA relative to UGCAUGU. For B8, the binding signal was 0.00267 KA relative to UGCAUGU. With B9 the binding signal was 0.019 KA relative to UGCAUGU. With B10 the binding signal was 0.00289 KA relative to UGCAUGU. B11 was tested, and the binding signal was 0.0148 KA relative to UGCAUGU. For B12, the binding signal was 0.00985 KA relative to UGCAUGU. B13 was tested, and the binding signal was 0.0233 KA relative to UGCAUGU. In the case of B14, the binding signal is reported as 0.00873 KA relative to UGCAUGU. In the case of B15, the binding signal is reported as 0.0115 KA relative to UGCAUGU. B16 was tested, and the binding signal was 0.0161 KA relative to UGCAUGU. For B17, the binding signal was 0.00699 KA relative to UGCAUGU. For B18, the binding signal was 0.0183 KA relative to UGCAUGU. For B19, the binding signal was 0.00827 KA relative to UGCAUGU. B20 was tested, and the binding signal was 0.0152 KA relative to UGCAUGU.
